The supplement of paper PMC3334620
The full ranking holds about 33,000 sequences; the median of “E-score (-0.5 to 0.5)” is about -0.04, and the highest 2% start at about 0.36. The list shows a part of the results.

Each sequence was assayed against T1, Hmlalpha2 (UniProt P0CY09) (assay: PBM E-score (8-mer binding enrichment) (E-score (-0.5 to 0.5)); higher = stronger / more preferred TF binding; most listed sequences are background and not binding sites). Conditions: protein concentration: 200 nM; construct: GST-full length.
T1 sequence: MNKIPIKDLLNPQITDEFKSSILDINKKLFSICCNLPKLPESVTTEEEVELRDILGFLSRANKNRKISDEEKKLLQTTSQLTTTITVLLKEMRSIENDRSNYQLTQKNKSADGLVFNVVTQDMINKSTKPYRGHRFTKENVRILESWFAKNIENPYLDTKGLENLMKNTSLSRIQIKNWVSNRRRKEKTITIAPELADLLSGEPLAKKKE
Summary of the method: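 Detection of bound protein used fluorescent anti-GST, with scans normalised by masliner. The proteins were GST-tagged yeast transcription factors applied at about 100-200 nM to universal all-10-mer Agilent arrays made double-stranded by primer extension. Each ungapped eight-base word, pooled with its reverse complement, was scored with an E-score from the Universal PBM Analysis Suite.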

Compared with AGAGTGAT, CTTTAACA is higher in “PBM E-score” value: -0.0285 for the first, 0.363 for the second.

Going from GTTAATTA to CCAATAGG, the “PBM E-score” value falls from 0.359 to -0.0903.

First: ATGGTCTA
Second: CTATTAGA
The “PBM E-score” value of the first is lower: -0.0996 for the first, -0.0387 for the second.

Compared with GAAACGTC, TCTGAACA is higher in “PBM E-score” value: -0.172 for the first, 0.121 for the second.

First: AAATATCA
Second: CCGGCCCA
The “PBM E-score” value of the first is higher: 0.0754 for the first, -0.343 for the second.

Going from CTACGAAC to AAGTTACC, the “PBM E-score” value rises from 0.0761 to 0.108.

Compared with GTGCCAAA, CCCGATAC is higher in “PBM E-score” value: -0.084 for the first, -0.0785 for the second.

Going from ATACAGAT to ACTAGTCA, the “PBM E-score” value falls from 0.0712 to -0.072.

Going from CTCGCATA to AAGGGTTG, the “PBM E-score” value rises from 0.0176 to 0.0478.

Going from AAACTGTC to CGTACGAA, the “PBM E-score” value rises from -0.09 to 0.111.

First: ATCCCCTC
Second: AACTGCCT
The “PBM E-score” value of the first is lower: -0.115 for the first, -0.0242 for the second.

Compared with CTTGTTAA, CCTGCTTA is lower in “PBM E-score” value: 0.414 for the first, 0.0578 for the second.

First: GAAGAAGA
Second: GAGATGTA
The “PBM E-score” value of the first is lower: 0.0898 for the first, 0.307 for the second.

Going from CTGCTGTA to AAACTGCT, the “PBM E-score” value falls from -0.00269 to -0.184.

First: CGGGGTGC
Second: CTACGGTA
The “PBM E-score” value of the first is lower: -0.272 for the first, -0.079 for the second.

Going from AAGCTCCG to AGCGAAGA, the “PBM E-score” value falls from -0.13 to -0.249.

Going from CCCGTTAC to TCGTCAAA, the “PBM E-score” value rises from -0.0221 to 0.0285.

Going from AAACACAG to AAACTGAC, the “PBM E-score” value falls from 0.318 to -0.0645.

First: GATTTTCC
Second: ATGGCGAC
The “PBM E-score” value of the first is higher: -0.115 for the first, -0.141 for the second.

Compared with GTACTGTA, TCGGTCCA is lower in “PBM E-score” value: 0.0819 for the first, -0.138 for the second.

First: ACTAATAG
Second: ACGAACTA
The “PBM E-score” value of the first is lower: 0.0561 for the first, 0.107 for the second.

Going from CTCTTCAA to AACCCACC, the “PBM E-score” value rises from -0.15 to -0.119.

Compared with CACTCAGG, AACATAAG is higher in “PBM E-score” value: 0.0519 for the first, 0.391 for the second.

Compared with AGCAGCTA, GACACCGA is lower in “PBM E-score” value: 0.0354 for the first, -0.0549 for the second.

Compared with CCAATCGA, GATACTTA is higher in “PBM E-score” value: -0.143 for the first, -0.00631 for the second.

Compared with ATCTACTA, AGTCTCAG is lower in “PBM E-score” value: 0.193 for the first, -0.152 for the second.

Compared with ATGTTAAC, AAGCCATG is lower in “PBM E-score” value: 0.448 for the first, 0.09 for the second.

First: ACTGTTTA
Second: ATCTCGCG
The “PBM E-score” value of the first is higher: 0.227 for the first, 0.0474 for the second.

Compared with GAGCACAC, GTTGCATA is higher in “PBM E-score” value: -0.11 for the first, 0.0217 for the second.

Compared with CTTCCAAG, CGAATCTA is higher in “PBM E-score” value: -0.152 for the first, 0.066 for the second.

First: GATCCCCA
Second: CCCTGTTC
The “PBM E-score” value of the first is lower: -0.19 for the first, -0.147 for the second.

Going from TGGCAGAA to CAACTGGG, the “PBM E-score” value falls from -0.0306 to -0.285.

Going from CACGCTAA to CGCCCGCA, the “PBM E-score” value falls from 0.0185 to -0.195.

First: GGAAGTCA
Second: AGCATGCC
The “PBM E-score” value of the first is lower: -0.328 for the first, -0.116 for the second.

Compared with AGTGCCTG, AAACGAGA is higher in “PBM E-score” value: -0.287 for the first, 0.00331 for the second.

Going from GGGGTCAA to AATGCTTA, the “PBM E-score” value rises from -0.0247 to 0.0111.

Compared with ACCCATAA, AGGCATGG is higher in “PBM E-score” value: -0.141 for the first, -0.093 for the second.

Compared with GCTGCCCC, CAGTTAAC is higher in “PBM E-score” value: -0.237 for the first, 0.174 for the second.

Going from GCCCCCTA to AGATCGAG, the “PBM E-score” value rises from -0.299 to -0.0726.

Going from ATTTTCCG to CGTAAATA, the “PBM E-score” value rises from -0.0414 to 0.352.

Going from AATCTTGA to ATTCGTTA, the “PBM E-score” value rises from 0.024 to 0.0794.

Compared with AATGCATG, CGGACTGC is lower in “PBM E-score” value: 0.208 for the first, 0.0298 for the second.

Compared with ATTGAGCG, GGTTTCAA is lower in “PBM E-score” value: -0.0413 for the first, -0.0868 for the second.

Going from GCCCGGTA to GTCGATCA, the “PBM E-score” value rises from -0.191 to 0.111.

Compared with ACTTTCTC, AATAGAAC is higher in “PBM E-score” value: -0.00994 for the first, 0.0852 for the second.

Going from CCGCGCCA to CAGTTGAC, the “PBM E-score” value rises from -0.237 to 0.00858.

Going from GCGTTGAA to AGCGCCCG, the “PBM E-score” value falls from 0.279 to -0.132.

Going from ACACCGTC to CTTGGGAA, the “PBM E-score” value rises from -0.0839 to -0.0083.

First: CACGGCCC
Second: CTAGTAGA
The “PBM E-score” value of the first is lower: -0.0363 for the first, 0.0904 for the second.

Compared with GTCAGGAC, AACTAGAA is higher in “PBM E-score” value: -0.232 for the first, 0.134 for the second.

First: CCTAACCC
Second: ACGATGCT
The “PBM E-score” value of the first is lower: -0.292 for the first, -0.101 for the second.

First: ATTTTCGA
Second: GATGTCCC
The “PBM E-score” value of the first is higher: 0.136 for the first, -0.368 for the second.

Going from GTGGTCTA to GCCTTAGC, the “PBM E-score” value rises from -0.296 to -0.0811.

Compared with AAACTCCC, AAGATTAG is higher in “PBM E-score” value: -0.157 for the first, 0.0689 for the second.

Compared with GCAGGCCC, CTTCAACC is higher in “PBM E-score” value: -0.215 for the first, 0.0272 for the second.

Going from CCCATTCC to ATATGGAC, the “PBM E-score” value rises from -0.361 to 0.0265.

Going from ACCCAACG to GGGAGTAC, the “PBM E-score” value falls from -0.0162 to -0.0344.

First: ATCCATAC
Second: ATGAAATA
The “PBM E-score” value of the first is lower: -0.0413 for the first, 0.16 for the second.

First: GGGTAGAA
Second: GCCCTGAA
The “PBM E-score” value of the first is higher: 0.138 for the first, 0.0216 for the second.

Going from TGAACTCA to CCTAAAGC, the “PBM E-score” value falls from 0.0602 to -0.287.

Going from AATCGCTA to CAACGTCA, the “PBM E-score” value rises from -0.0187 to 0.00153.

Compared with TCCAAAAA, GAGACCGA is higher in “PBM E-score” value: -0.0755 for the first, 0.00577 for the second.

First: AGCCTGCC
Second: AACGAACA
The “PBM E-score” value of the first is lower: -0.0873 for the first, 0.277 for the second.

Compared with GGCGCCGA, AAGACTTC is lower in “PBM E-score” value: -0.0244 for the first, -0.057 for the second.

First: CCGATACG
Second: ACTCCTGG
The “PBM E-score” value of the first is lower: -0.211 for the first, -0.113 for the second.

First: CCGTCAGG
Second: GTAATGGA
The “PBM E-score” value of the first is lower: -0.148 for the first, 0.339 for the second.

Going from GACCATGC to TTAATAAA, the “PBM E-score” value rises from -0.00429 to 0.271.

First: TGACTCCA
Second: CGTTGCCC
The “PBM E-score” value of the first is higher: -0.208 for the first, -0.283 for the second.

Going from GAATTGGA to CCCCTAAG, the “PBM E-score” value falls from -0.0175 to -0.317.

Going from CACGTAGC to CATGAACC, the “PBM E-score” value rises from -0.0687 to 0.0312.

Going from ATACAAAC to GTACTTAA, the “PBM E-score” value falls from 0.27 to 0.171.

First: ATAGGCCG
Second: CACAGGTC
The “PBM E-score” value of the first is higher: 0.0251 for the first, -0.101 for the second.

First: CTAGGAGA
Second: CACGTTCG
The “PBM E-score” value of the first is lower: -0.0596 for the first, 0.0113 for the second.

Going from AACCGCGT to CGCGTGGA, the “PBM E-score” value falls from 0.296 to -0.118.

First: GTTAGGGA
Second: CGTGGCAG
The “PBM E-score” value of the first is lower: -0.123 for the first, -0.0613 for the second.

Compared with ATAGTGGG, ACCACGCG is higher in “PBM E-score” value: -0.113 for the first, 0.0409 for the second.

Compared with ATGACGAC, GTCAACCA is higher in “PBM E-score” value: -0.105 for the first, 0.114 for the second.

Compared with ACTAAACA, CGTTTATC is lower in “PBM E-score” value: 0.196 for the first, -0.02 for the second.

First: ATCATCCC
Second: AACCAACA
The “PBM E-score” value of the first is lower: -0.164 for the first, 0.235 for the second.

Compared with CGTCATTA, ACCCCCTG is lower in “PBM E-score” value: 0.0735 for the first, -0.214 for the second.

Compared with AGGTGAGC, GCCTGACC is lower in “PBM E-score” value: -0.0355 for the first, -0.287 for the second.

Going from AGTGGTGC to ACTCACGG, the “PBM E-score” value rises from -0.216 to -0.0391.

First: CAGTAAGA
Second: ACCGTGGA
The “PBM E-score” value of the first is higher: 0.0324 for the first, -0.174 for the second.

Compared with CCGACGAA, CCTGGCTC is lower in “PBM E-score” value: 0.0889 for the first, -0.175 for the second.

Going from ACGTCTAG to GCCTAGGC, the “PBM E-score” value falls from 0.0729 to -0.238.

Going from AGTGACCG to ACGAGGAT, the “PBM E-score” value rises from -0.283 to -0.0455.
